Screen size: about 310,000 compounds; about 18,000 (5.8%) were called active. The shares of active, inactive and inconclusive entries below differ from those in the screen. Calls follow the shape of the dose curve; as a rule, active = well fitted inhibition curve with a large enough effect; inconclusive = small, poorly fitted or top-dose-only effect, or another doubt; inactive = no such curve, though single readings can be large or run the other way. No potency is given beside an inconclusive call; the fits are too rough.
Experiment: Primary qHTS for delayed death inhibitors of the malarial parasite plastid, 48 hour incubation
Details: P. falciparum luciferase growth in erythrocytes; series mostly up to 28.7 µM; activity change, negative = inhibition: at the top concentration
Procedure, shortened: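 Luminescence readout; reporter = integrated firefly luciferase in P. falciparum. RBC culture at 2% hematocrit, 0.1% parasitemia final, 37 C/5% CO2; decreased signal taken as growth inhibition.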
% is scaled to controls: 0 for no effect and ±100 for the full control effect; potency is read from the fitted curve at half-maximal effect; tags tell the direction and shape of the fitted curve.

SMILES | Potency | activity change, negative = inhibition
O=S(=O)(NNC(=S)Nc1ccc(S(=O)(=O)Nc2ncccn2)cc1)c1ccc(Br)cc1 | inconclusive [inhibitor, single point] | 
O=C(Nc1ccc2c(c1)OCO2)c1cccc2c1C(=O)N(Cc1cccnc1)C2 | inconclusive [inhibitor, single point] | 
O=C1CSC(c2ccccc2)N1c1nnc(C23CC4CC(CC(C4)C2)C3)s1 (centres undefined) | inconclusive [inhibitor, single point] | 
CCCCC(c1nnnn1CS(=O)(=O)c1ccc(C)cc1)N1CCC(C(N)=O)CC1 (centres undefined) | inconclusive [inhibitor, single point] | 
COc1ccc(C)cc1Nc1n[n+](-c2ccccc2)c(-c2c(Cl)cccc2Cl)s1 | active: 10.4 µM | 
CC(C)C(NC(=O)C(c1ccccc1)c1ccccc1)c1nc2ccccc2[nH]1 (centres undefined) | active: 9.28 µM | 
COCC1CCCCN1C(=O)c1ccc2oc(CCc3ccccc3)nc2c1 (centres undefined) |  | inactive: 26%
CCNc1nc(SCC(=O)Nc2ccc(Cl)c(Cl)c2)nc(N(C)C)n1 | inconclusive [inhibitor, partial curve, poor fit] | 
C=CCc1ccc(OCCOCCNCCCC)c(OC)c1 |  | inactive: -27.2%
CN(Cc1cn(C)nc1-c1cccc(Cl)c1)CC1CCCCO1 (centres undefined) |  | inactive: 5.67%
Nc1n[nH]c2cc(=O)n(-c3cccc(C(F)(F)F)c3)nc12 | inconclusive [inhibitor, partial curve, poor fit] | 
Cc1cc(C)nc(SCc2ccc(C(=O)NN=C3CCCC3)cc2)n1 |  | inactive: 0%
CN(Cc1ccccc1)C(=O)CCC1CCN(C(=O)CCC(F)(F)F)CC1 |  | inactive: 12.1%
CCc1ccc(NC(=O)N2CCN(c3ccc(F)cc3)CC2)cc1 | inconclusive [inhibitor, partial curve, poor fit] | 
CS(=O)(=O)N(Cc1nc(-c2ccc(F)cc2)no1)c1ccccc1Cl | inconclusive [inhibitor, single point] | 
COc1ccc(OC)c(-c2csc(NC(=O)c3ccc(OCC4CCCO4)cc3)n2)c1 (centres undefined) | inconclusive [inhibitor, single point] | 
Cc1nn(-c2ccccc2)c(C)c1NC(=O)COc1ccc(Br)cc1Cl |  | inactive: -1.32%
COc1ccc(O)c(/C=N/NC(=O)c2cccc(N3CCCC3=O)c2)c1 | inconclusive [inhibitor, partial curve, poor fit] | 
COc1ccccc1CCC(=O)Nc1ncc(C)s1 |  | inactive: 56.5%
Cc1ccc(C)n1-c1nn(S(=O)(=O)c2cccc(C(F)(F)F)c2)c2cccc(F)c12 | inconclusive [inhibitor, single point] | 
CCc1noc(C)c1C(=O)N1CCN(S(=O)(=O)c2c(C)cc(C)cc2C)CC1 | inconclusive [inhibitor, single point] | 
CCOc1ccccc1NC(=O)COC(=O)c1cccc(-c2ccc(OC(C)=O)cc2)c1 | active: 9.28 µM | 
CC(=O)Nc1ccccc1-c1ccc(C)o1 |  | inactive: 34.7%

SMILES | Potency | activity change, negative = inhibition
NC(N)=N/N=C/c1ccc(N(c2ccccc2)c2ccccc2)cc1 | active: 2.33 µM | 
Cc1ccc(NC(=O)c2cc([N+](=O)[O-])ccc2NCc2cccnc2)cc1Cl | active: 5.86 µM | 
NC(=O)COc1ccccc1/C=C1/SC(=O)N(CC(=O)N2CCc3ccccc3C2)C1=O | inconclusive [inhibitor, single point] | 
S=C(Nc1ccccc1)N(CCN1CCOCC1)Cc1cccc(Cl)c1 | inconclusive [inhibitor, single point] | 
CN(C)S(=O)(=O)c1ccc(N2CCCC2)c(C(=O)OCC(=O)N2CCN(c3ccccc3)CC2)c1 | active: 14.7 µM | 
Cc1ccccc1-c1cc(C(=O)NCc2cccc(C(F)(F)F)c2)nn1CC1CC(c2cccc([N+](=O)[O-])c2)=NO1 (centres undefined) | active: 3.7 µM | 
CC(=O)c1ccc2c(c1)C1C=CCC1C(c1cc3c(cc1Br)OCO3)N2 (centres undefined) | inconclusive [inhibitor, single point] | 
CC(C)NS(=O)(=O)c1ccc(NC(=O)C2CC3C=CC2C3)cc1 (centres undefined) |  | inactive: -2.51%
CC1CCN(c2ccc(C(=O)O)cc2NS(=O)(=O)c2ccc(Br)cc2)CC1 | inconclusive [inhibitor, partial curve, poor fit] | 
Cc1ccccc1OCC(O)CN1CCN(CC(O)COc2ccccc2C)CC1 (centres undefined) | inconclusive [inhibitor, single point] | 
O=C(c1ccc(Cl)c(S(=O)(=O)N2CCCC2)c1)N1CCN(c2ncccn2)CC1 | inconclusive [inhibitor, partial curve, poor fit] | 
CCCCCCn1cnc2c(c1=O)c1nc3ccccc3nc1n2Cc1cccs1 |  | inactive: 16.5%
O=C(Nc1ccc(N2CCN(C(=O)c3cccs3)CC2)cc1)c1ccccc1F | inconclusive [inhibitor, single point] | 
Cc1nnc2n1N=CC=C(c1ccccc1)S2 | inconclusive [inhibitor, single point] | 
Cc1cc(C)c(S(=O)(=O)N2CCN(C(=O)N3CCCCC3)CC2)c(C)c1 | inconclusive [inhibitor, partial curve] | 
CCN(CC)S(=O)(=O)c1ccc(NC(=O)Cn2cnc3ccccc3c2=O)cc1 | inconclusive [inhibitor, single point] | 
Cc1c(/C=N/NC(=O)c2sc3ccccc3c2Cl)cnn1C |  | inactive: -16.5%
CCOc1ccccc1N1CCN(C(=O)c2csc(C)c2CC)CC1 | inconclusive [inhibitor, partial curve] | 
CCOC(=O)/C=C/C(=O)Nc1ccc(S(=O)(=O)Nc2nccs2)cc1 | inconclusive [inhibitor, single point] | 
O=C(CN1c2ccccc2Sc2ccccc21)N/N=C/c1ccc(Cl)cc1Cl | inconclusive [inhibitor, single point] | 
C=C(c1ccccc1Cl)[n+]1ccccc1 | active: 2.94 µM | 
Cc1cc(NC(=O)C2C3C(=O)N(Cc4ccc(Cl)cc4)C(C(=O)NC4CCCCC4)C34C=CC2(C)O4)no1 (centres undefined) | inconclusive [inhibitor, full curve, poor fit] | 
O=C(COC(=O)CNC(=O)C1CCCCC1)Nc1ccc2c(c1)OCCO2 | inconclusive [inhibitor, full curve] | 

SMILES | Potency | activity change, negative = inhibition
COc1ccc(O)c(C(=O)c2cc(C#N)c(=O)n(-c3ccc(Cl)cc3)c2)c1 | active: 7.38 µM | 
Cc1ccc(CNC(=O)C2CCN(S(=O)(=O)c3cccs3)CC2)cc1 |  | inactive: 10.7%
CCOc1ccc(CCNC(=O)c2cccc(-n3cnnn3)c2)cc1OCC | inconclusive [inhibitor, single point] | 
CC(Cc1ccccc1Sc1ccc(O)cc1)N(C)C (centres undefined) | active: 13.1 µM | 
COC(=O)C(c1ccccc1)C1CCCCN1 (centres undefined) |  | inactive: -13.2%
Cc1ccc(-c2nnc(-c3cccc(NC(=O)c4cccs4)c3)o2)cc1 | inconclusive [inhibitor, partial curve, poor fit] | 
CC(=O)N1CCc2cc(Br)cc(S(=O)(=O)N3CCN(C(=O)c4ccco4)CC3)c21 | inconclusive [inhibitor, partial curve, poor fit] | 
O=C(O)c1ccc(/C=C2\SC(=S)N(NC(=O)c3ccccc3[N+](=O)[O-])C2=O)cc1 |  | inactive: 20.1%
O=C(NC(=S)N1CCN(c2ccc(Cl)cc2[N+](=O)[O-])CC1)c1cccs1 | inconclusive [inhibitor, single point] | 
CC(=O)Nc1ccc(NC(=O)CSc2nc3nc(-c4cccs4)cc(C(F)(F)F)c3c(=O)[nH]2)cc1 | inconclusive [inhibitor, single point] | 
CCN(CCn1cccn1)Cc1cn[nH]c1-c1cccc2ccccc12 |  | inactive: -19.3%
CC(C(=O)Nc1ccc(C#N)cc1)N(C)CC(=O)Nc1ccccc1Br (centres undefined) | inconclusive [inhibitor, partial curve, poor fit] | 
CC1CC(C)CN(C(=O)Cn2c(=O)oc3cc(S(=O)(=O)N4CCCC4)ccc32)C1 (centres undefined) | inconclusive [inhibitor, single point] | 
CCCC(=O)Nc1nc2nc(-c3ccccc3)cc(-c3ccccc3)n2n1 | inconclusive [inhibitor, partial curve, poor fit] | 
CC(c1ccco1)N(C(=O)C12CC3CC(CC(C)(C3)C1)C2)c1ccccn1 (centres undefined) |  | inactive: 8.14%
COC(=O)C1=CN(c2ccc(Cl)cc2)C=C(C(=O)OC)C1c1ccc([N+](=O)[O-])cc1 | active: 13.1 µM | 
CCOc1ccc(NC(=O)C(Cc2ccccc2)NC(=O)C2CCCCC2)cc1 (centres undefined) |  | inactive: -5.62%
C=CCN(CC=C)S(=O)(=O)c1ccc2nc(NC(=O)C(C)C)sc2c1 | inconclusive [inhibitor, partial curve] | 
Cc1noc(C)c1C(=O)N1CCN(C(=O)c2sc3cc(Cl)ccc3c2Cl)CC1 | inconclusive [inhibitor, single point] | 
CCc1ccc(-c2cc(C(=O)NCc3ccco3)c3ccccc3n2)s1 | inconclusive [inhibitor, single point] | 
CCC(=O)Nc1c(-c2ccc(Cl)cc2)c(=O)c2ccccc2n1C |  | inactive: 0.382%
NS(=O)(=O)c1cccc(NC(=O)CSc2nc3ccccc3n2-c2ccccc2)c1 | inconclusive [inhibitor, single point] | 
CCn1c(=O)c2c(nc3n2CCCN3Cc2ccccc2)n(C)c1=O | inconclusive [inhibitor, single point] | 

— PubChem BioAssay AID504832 (National Center for Advancing Translational Sciences (NCATS), 2011)
